Assay results reported in PubChem BioAssay AID504332 (National Center for Advancing Translational Sciences (NCATS), 2011).
Several values for one entry are separate records, joined by “and”; a condition that tells them apart may be missing. Equal values may be shown once. The campaign covered roughly 350,000 compounds. About 31,000 (8.9%) were called active. The shares of active, inactive and inconclusive entries below differ from those in the screen. Calls follow the shape of the dose curve; as a rule, active = well fitted inhibition curve with a large enough effect; inconclusive = small, poorly fitted or top-dose-only effect; inactive = no such curve, though single readings can be large or run the other way. Where the call is inconclusive, the potency comes from a doubtful curve fit. More than one record can exist for a structure, and the calls need not agree.

Biological target: Histone-lysine N-methyltransferase EHMT2 (Homo sapiens) (UniProt Q96KQ7)
UniProt Q96KQ7, sequence (Q96KQ7 whole entry, looked up): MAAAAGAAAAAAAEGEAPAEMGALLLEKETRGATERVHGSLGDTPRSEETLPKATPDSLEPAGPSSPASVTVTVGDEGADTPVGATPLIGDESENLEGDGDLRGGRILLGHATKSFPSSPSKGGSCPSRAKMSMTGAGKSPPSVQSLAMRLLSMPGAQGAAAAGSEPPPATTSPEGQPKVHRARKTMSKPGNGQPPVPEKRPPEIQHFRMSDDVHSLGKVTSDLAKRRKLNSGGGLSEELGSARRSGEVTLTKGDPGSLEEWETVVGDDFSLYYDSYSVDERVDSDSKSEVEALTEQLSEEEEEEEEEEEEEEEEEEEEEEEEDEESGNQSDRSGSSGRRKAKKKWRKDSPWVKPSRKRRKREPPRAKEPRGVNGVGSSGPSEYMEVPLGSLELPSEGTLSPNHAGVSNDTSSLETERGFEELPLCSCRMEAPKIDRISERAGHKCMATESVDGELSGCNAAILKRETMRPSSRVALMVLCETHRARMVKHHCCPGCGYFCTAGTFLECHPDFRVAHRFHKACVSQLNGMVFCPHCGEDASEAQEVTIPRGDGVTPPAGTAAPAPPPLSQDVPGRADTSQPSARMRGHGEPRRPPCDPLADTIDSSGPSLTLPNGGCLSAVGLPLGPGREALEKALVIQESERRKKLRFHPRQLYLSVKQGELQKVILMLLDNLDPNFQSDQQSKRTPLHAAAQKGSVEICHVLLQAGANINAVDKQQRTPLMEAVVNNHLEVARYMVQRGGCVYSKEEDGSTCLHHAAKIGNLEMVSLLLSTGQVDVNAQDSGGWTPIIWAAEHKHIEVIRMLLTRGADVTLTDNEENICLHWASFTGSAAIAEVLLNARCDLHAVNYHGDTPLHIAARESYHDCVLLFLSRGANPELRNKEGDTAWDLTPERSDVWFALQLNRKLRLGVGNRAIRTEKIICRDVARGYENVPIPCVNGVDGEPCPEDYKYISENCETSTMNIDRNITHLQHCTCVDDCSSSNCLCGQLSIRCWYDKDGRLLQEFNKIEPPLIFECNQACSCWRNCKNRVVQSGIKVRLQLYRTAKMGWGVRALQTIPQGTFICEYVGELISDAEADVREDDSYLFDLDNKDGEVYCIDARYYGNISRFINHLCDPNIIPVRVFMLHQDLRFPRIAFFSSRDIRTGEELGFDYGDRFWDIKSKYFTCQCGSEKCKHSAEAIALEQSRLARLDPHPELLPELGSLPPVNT
Assay: qHTS Assay for Inhibitors of Histone Lysine Methyltransferase G9a; also: nearly all actives have a fitted effect of over 75% in size
Conditions: G9a H3K9 monomethylation, AlphaScreen, 2 h; activity, negative = inhibition: at 59 µM (top of the series) unless noted
In short: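 Quantitative HTS format: methyltransferase activity on a biotin-tagged H3K9 peptide is measured by AlphaScreen, using a rabbit anti-monomethyl-H3K9 antibody with streptavidin donor and anti-IgG acceptor beads. Final levels are 20 nM enzyme, 500 nM peptide, 20 uM SAM; 2 h RT.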
% is scaled to controls: 0 for no effect and ±100 for the full control effect; potency is read from the fitted curve at half-maximal effect; tags tell the direction and shape of the fitted curve.

Question: For `COc1ccc(Nc2nc3ccccc3nc2NS(=O)(=O)c2cccs2)c(OC)c1`, which Potency is on record?
Answer: inconclusive: 89.1 µM [inhibitor, single point]

Question: `Cc1nc(SCC(=O)NCc2ccco2)c2oc3ccccc3c2n1` was tested. Which Potency did it give?
Answer: inconclusive: 89.1 µM [inhibitor, single point]

Question: For `COc1ccc(C(=O)N/N=C/c2ccccn2)cc1OC`, which “activity, negative = inhibition” value is on record?
Answer: inactive: 3.47% [at 102 µM]

Question: `Cc1ccc(C2c3sc(=O)[nH]c3SC3C4CC(C5C(=O)N(C(C)C(=O)O)C(=O)C45)C23)cc1` (centres undefined) was tested. Which Potency did it give?
Answer: inconclusive: 10 µM [inhibitor, partial curve, poor fit]

Question: For `O=C(NC1CCCCC1)c1ccc(Cn2cc(Br)cn2)o1`, which Potency is on record?
Answer: inconclusive: 89.1 µM [inhibitor, single point]

Question: Which Potency does the source give for `COc1ccc(C(=O)NCC(=O)N=Nc2c(O)n(C)c3ccccc23)cc1OC` here?
Answer: inconclusive: 89.1 µM [inhibitor, partial curve, poor fit]

Question: Which Potency does the source give for `NC(Cc1c[nH]c2ccc(OCc3ccccc3)cc12)C(=O)O` (centres undefined) here?
Answer: active: 44.7 µM

Question: Which Potency does the source give for `Cn1c(=O)c2c(nc(CN3CCOCC3)n2CCCO)n(C)c1=O` here?
Answer: inconclusive: 89.1 µM [inhibitor, single point]

Question: With `COc1ccc(-c2nc3cnc(Oc4cccc(Cl)c4)nc3n(CCC#N)c2=O)cc1` as the compound, how does the activity, negative = inhibition read?
Answer: inactive: 2.16% [at 0.501 µM]

Question: For `COc1cc(S(=O)(=O)N2CCCCC2)ccc1NC(=O)c1ccccc1Cl`, which “activity, negative = inhibition” value is on record?
Answer: inactive: -5.72%

Question: Which Potency does the source give for `O=C(c1cccc(N2C(=O)C3C4C=CC(C4)C3C2=O)c1)N1CCCCCC1` (centres undefined) here?
Answer: active: 1.26 µM

Question: For `Cc1ccc(S(=O)(=O)n2c([N+](=O)[O-])cnc2C)cc1C`, which Potency is on record?
Answer: inconclusive: 89.1 µM [inhibitor, single point]

Question: For `COCCNC(=S)Nc1ccc(N2CCCCC2)cc1`, which Potency is on record?
Answer: active: 8.91 µM

Question: For `CCN1CCN(c2nc(Nc3ccc(C)c(C)c3)nc(N)c2[N+](=O)[O-])CC1`, which Potency is on record?
Answer: active: 10 µM

Question: How did the Potency turn out when `COc1cc(/C=N/NC(=O)C(=O)/C=C2\NC(C)(C)Cc3ccccc32)ccc1O` was run?
Answer: inconclusive: 50.1 µM [inhibitor, partial curve]

Question: `C#CCN1C(C)=C(C(=O)OC)C(c2cccc([N+](=O)[O-])c2)C(C(=O)OCC)=C1C` (centres undefined) was tested. Which Potency did it give?
Answer: inactive and active: 11.2 µM

Question: Which Potency does the source give for `O=C(Nc1cccc(/C=C/c2ccccn2)c1)c1cc(Cl)ccn1` here?
Answer: inconclusive: 89.1 µM [inhibitor, single point]

Question: How did the Potency turn out when `Cc1ccc(-c2onc3ccc(C=O)cc23)cc1` was run?
Answer: inconclusive: 89.1 µM [inhibitor, single point]

Question: `NC(=O)C1CCCN(C(=O)c2cccc(NC(=O)c3cccs3)c2)C1` (centres undefined) was tested. Which Potency did it give?
Answer: inconclusive: 56.2 µM [inhibitor, partial curve]
